Some of the results follow.
Experiments:
Assay in all cases: glycan array binding signal (z-score within array); higher = stronger binding
Settings in all cases: glycan notation: IUPAC condensed, linker removed
[1] = biological target: Fuc(a1-2)Gal(b1-4)GlcNAc(b1-3)Gal(b1-4)GlcNAc(b1-2)Man(a1-3)[Fuc(a1-2)Gal(b1-4)GlcNAc(b1-3)Gal(b1-4)GlcNAc(b1-2)Man(a1-6)]Man(b1-4)GlcNAc(b1-4)GlcNAc
Procedure, shortened: (§1)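 Arrays were curated from the Consortium for Functional Glycomics database, 3228 in total, and kept only where the protein sequence was available. Binding is expressed as a within-array Z-score. This score was averaged across arrays of the same protein sequence at different concentrations or buffers and across linkers, and negative values can be read as non-binding.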

[2] = biological target: Fuc(a1-2)Gal(b1-4)GlcNAc(b1-3)Gal(b1-4)GlcNAc(b1-3)Gal(b1-4)GlcNAc
Procedure, shortened: as §1

[3] = biological target: Fuc(a1-2)Gal(b1-4)GlcNAc(b1-3)GalNAc
Procedure, shortened: as §1

[4] = biological target: Fuc(a1-2)Gal(b1-4)GlcNAc(b1-3)[Fuc(a1-2)Gal(b1-4)GlcNAc(b1-6)]GalNAc
Procedure, shortened: as §1

[5] = biological target: Fuc(a1-2)Gal(b1-4)GlcNAc(b1-3)[Fuc(a1-3)[Gal(b1-4)]GlcNAc(b1-6)]Gal(b1-4)Glc
Procedure, shortened: as §1

[6] = biological target: Fuc(a1-2)Gal(b1-4)GlcNAc(b1-6)GalNAc
Procedure, shortened: as §1

[7] = biological target: Fuc(a1-2)Gal(b1-4)GlcNAc6S
Procedure, shortened: as §1

[8] = biological target: Fuc(a1-2)Gal(b1-4)[Fuc(a1-3)]GlcNAc
Procedure, shortened: as §1

[9] = biological target: Fuc(a1-2)Gal(b1-4)[Fuc(a1-3)]GlcNAc(b1-2)Man(a1-3)[Fuc(a1-2)Gal(b1-4)[Fuc(a1-3)]GlcNAc(b1-2)Man(a1-6)]Man(b1-4)GlcNAc(b1-4)[Fuc(a1-6)]GlcNAc
Procedure, shortened: as §1

[10] = biological target: Fuc(a1-2)Gal(b1-4)[Fuc(a1-3)]GlcNAc(b1-2)[Fuc(a1-2)Gal(b1-4)[Fuc(a1-3)]GlcNAc(b1-4)]Man(a1-3)[Fuc(a1-2)Gal(b1-4)[Fuc(a1-3)]GlcNAc(b1-2)Man(a1-6)]Man(b1-4)GlcNAc(b1-4)GlcNAc
Procedure, shortened: as §1

[11] = biological target: Fuc(a1-2)Gal(b1-4)[Fuc(a1-3)]GlcNAc(b1-3)Gal(b1-4)[Fuc(a1-3)]GlcNAc
Procedure, shortened: as §1

[12] = biological target: Fuc(a1-2)Gal(b1-4)[Fuc(a1-3)]GlcNAc(b1-3)Gal(b1-4)[Fuc(a1-3)]GlcNAc(b1-3)Gal(b1-4)[Fuc(a1-3)]GlcNAc
Procedure, shortened: as §1

[13] = biological target: Fuc(a1-2)Gal(b1-4)[Fuc(a1-3)]GlcNAc(b1-3)GalNAc
Procedure, shortened: as §1

[14] = biological target: Fuc(a1-2)Gal(b1-4)[Fuc(a1-3)]GlcNAc(b1-3)[Neu5Ac(a2-6)Gal(b1-4)GlcNAc(b1-6)]Gal(b1-4)Glc
Procedure, shortened: as §1

[15] = biological target: Fuc(a1-2)Gal3S(b1-4)GlcNAc
Procedure, shortened: as §1

[16] = biological target: Fuc(a1-2)Gal6S(b1-3)GlcNAc
Procedure, shortened: as §1

[17] = biological target: Fuc(a1-2)Gal6S(b1-3)GlcNAc6S
Procedure, shortened: as §1

[18] = biological target: Fuc(a1-2)Gal6S(b1-4)Glc
Procedure, shortened: as §1

[19] = biological target: Fuc(a1-2)Gal6S(b1-4)Glc6S
Procedure, shortened: as §1

[20] = biological target: Fuc(a1-2)[Gal(a1-3)]Gal
Procedure, shortened: as §1

[21] = biological target: Fuc(a1-2)[Gal(a1-3)]Gal(b1-3)GalNAc
Procedure, shortened: as §1

[22] = biological target: Fuc(a1-2)[Gal(a1-3)]Gal(b1-3)GalNAc(b1-3)Gal(a1-4)Gal(b1-4)Glc
Procedure, shortened: as §1

[23] = biological target: Fuc(a1-2)[Gal(a1-3)]Gal(b1-3)GlcNAc
Procedure, shortened: as §1

[24] = biological target: Fuc(a1-2)[Gal(a1-3)]Gal(b1-3)GlcNAc(b1-2)Man(a1-3)[Fuc(a1-2)[Gal(a1-3)]Gal(b1-3)GlcNAc(b1-2)Man(a1-6)]Man(b1-4)GlcNAc(b1-4)GlcNAc
Procedure, shortened: as §1

[25] = biological target: Fuc(a1-2)[Gal(a1-3)]Gal(b1-3)GlcNAc(b1-2)Man(a1-3)[Fuc(a1-2)[Gal(a1-3)]Gal(b1-3)GlcNAc(b1-2)Man(a1-6)]Man(b1-4)GlcNAc(b1-4)[Fuc(a1-6)]GlcNAc
Procedure, shortened: as §1

[26] = biological target: Fuc(a1-2)[Gal(a1-3)]Gal(b1-3)GlcNAc(b1-3)GalNAc
Procedure, shortened: as §1

[27] = biological target: Fuc(a1-2)[Gal(a1-3)]Gal(b1-3)GlcNAc(b1-6)GalNAc
Procedure, shortened: as §1

[28] = biological target: Fuc(a1-2)[Gal(a1-3)]Gal(b1-4)Glc
Procedure, shortened: as §1

[29] = biological target: Fuc(a1-2)[Gal(a1-3)]Gal(b1-4)GlcNAc
Procedure, shortened: as §1

[30] = biological target: Fuc(a1-2)[Gal(a1-3)]Gal(b1-4)GlcNAc(b1-2)Man
Procedure, shortened: as §1

B1: SP16664B-bot-474-25-474 (Bacteroides ovatus) (protein)
chain: CEEDIEIGNKIDESSYLASTQLSGLLLDENTNKNSSVIELRNNEYSTNVVFRLSKLPQKGVDVQIAVEESYAAIYNTIHETDFEVFPAANVKIANNGTFVLAPDDKVTPSVKVTLTAFDGMEEDKTYIVPLTVTSSTEGVTFTETSKHMVLLVQDYRNKPNTNKGEDAVQTVLYFEVNDTNPLNALEFLTESGKYFFDHIVLFAANINWDPEKQRVYLANNENVQFLLDNNDKYLQPLRKAGMKIIISILGNHDEAGVAQLSDMGAREFARELAAYCRAYNLDGVAFDDEYSNSPDLSNPWLASPSAYAGSRLMYECKAVMPEKIVSLYNLGNMYSSSLQVIDGIEPGQYCDYAVADYGGAAGPGTGMTLKQCAGMSIELRRGSGNSSESTARSRKEAGYGYYMFFALDPSLYGSQVYRCQSVCKGLYDETLVYPSYYYKKNSTEREAIN
With B1 the “glycan array binding signal (z-score)” value [1] was 0.089, the “glycan array binding signal (z-score)” value [2] was -0.192 and the “glycan array binding signal (z-score)” value [3] was -0.014. For the same binder, the “glycan array binding signal (z-score)” value [4] was -0.207, the “glycan array binding signal (z-score)” value [5] was -0.136 and the “glycan array binding signal (z-score)” value [6] was -0.159. For the same binder, the “glycan array binding signal (z-score)” value [7] was -0.261, the “glycan array binding signal (z-score)” value [8] was -0.434 and the “glycan array binding signal (z-score)” value [9] was 0.4. For the same binder, the “glycan array binding signal (z-score)” value [10] was 0.183, the “glycan array binding signal (z-score)” value [11] was -0.262 and the “glycan array binding signal (z-score)” value [12] was -0.263. The “glycan array binding signal (z-score)” value [13] was 1.15, the “glycan array binding signal (z-score)” value [14] was -0.349 and the “glycan array binding signal (z-score)” value [15] was -0.472. The “glycan array binding signal (z-score)” value [16] was 0.097, the “glycan array binding signal (z-score)” value [17] was 0.246 and the “glycan array binding signal (z-score)” value [18] was 0.171. The “glycan array binding signal (z-score)” value [19] was 0.157, the “glycan array binding signal (z-score)” value [20] was -0.295 and the “glycan array binding signal (z-score)” value [21] was 0.022. The “glycan array binding signal (z-score)” value [22] was -0.407, the “glycan array binding signal (z-score)” value [23] was -0.131 and the “glycan array binding signal (z-score)” value [24] was -0.111. The “glycan array binding signal (z-score)” value [25] was 0.332, the “glycan array binding signal (z-score)” value [26] was -0.535 and the “glycan array binding signal (z-score)” value [27] was -0.401. For the same binder, the “glycan array binding signal (z-score)” value [28] was -0.093, the “glycan array binding signal (z-score)” value [29] was -0.507 and the “glycan array binding signal (z-score)” value [30] was -0.29.
